Assay results published in US20030235860A1 (published 2003).

Target: T1, estrogen receptor (ER), full-length (human, UniProt P03372 1-595)
T1 construct: 35S-labeled when in vitro translated for the pull-downs; endogenous in MCF7 cells for the co-immunoprecipitation; also called ERα; pSG5-ER
T1 sequence: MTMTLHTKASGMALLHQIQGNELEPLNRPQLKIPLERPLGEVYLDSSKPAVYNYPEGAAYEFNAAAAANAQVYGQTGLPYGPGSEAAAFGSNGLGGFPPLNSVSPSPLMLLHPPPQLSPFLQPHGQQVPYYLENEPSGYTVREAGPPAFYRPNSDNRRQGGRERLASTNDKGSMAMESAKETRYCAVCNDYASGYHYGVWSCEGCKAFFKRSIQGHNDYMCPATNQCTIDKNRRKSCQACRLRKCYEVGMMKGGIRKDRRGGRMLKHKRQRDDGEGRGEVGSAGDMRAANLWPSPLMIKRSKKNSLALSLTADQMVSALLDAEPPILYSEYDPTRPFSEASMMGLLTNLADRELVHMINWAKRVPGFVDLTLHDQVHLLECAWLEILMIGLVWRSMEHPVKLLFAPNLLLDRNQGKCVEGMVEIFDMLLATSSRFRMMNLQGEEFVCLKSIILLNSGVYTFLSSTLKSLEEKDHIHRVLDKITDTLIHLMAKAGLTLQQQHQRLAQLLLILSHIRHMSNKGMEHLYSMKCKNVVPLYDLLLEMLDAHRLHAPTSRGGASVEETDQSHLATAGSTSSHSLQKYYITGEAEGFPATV
Test: GST pull-down in the absence of E2

binding result: no binding
B1: GST control protein (other)
chain: not shown
notes: Control protein on glutathione-Sepharose beads; also called GST alone
